The target in this experiment is T1, thioredoxin/thioredoxin reductase (Bos taurus, UniProt O97680).
T1 sequence (O97680 1-105): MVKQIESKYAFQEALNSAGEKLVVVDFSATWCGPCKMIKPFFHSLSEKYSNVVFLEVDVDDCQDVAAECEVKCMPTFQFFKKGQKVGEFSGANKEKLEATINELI
The following applies: result in words.

Consider `O=S(=O)([O-])CCSSCCS(=O)(=O)[O-].[Na+].[Na+]` [Tavocept™, disodium 2,2′-dithio-bis-ethane sulfonate], for which the “inhibition of TX/TXR catalyzed reduction of the insulin A-B chain disulfide bond” value is recorded as “inhibits”.

Source of the values: patent publication US9320760B2, “Compositions and methods of use of compounds to increase cancer patient survival time” (BioNumerik Pharmaceuticals, Inc., priority 2008, dated 2016).
